Reference: the BET-seq Pho4 binding data (Le et al. 2018)
The list shows a part of the results. Values were computed here from the reads of four pooled replicates and scatter widely.

Target: T1, Pho4 (S. cerevisiae) (UniProt P07270)
T1 sequence: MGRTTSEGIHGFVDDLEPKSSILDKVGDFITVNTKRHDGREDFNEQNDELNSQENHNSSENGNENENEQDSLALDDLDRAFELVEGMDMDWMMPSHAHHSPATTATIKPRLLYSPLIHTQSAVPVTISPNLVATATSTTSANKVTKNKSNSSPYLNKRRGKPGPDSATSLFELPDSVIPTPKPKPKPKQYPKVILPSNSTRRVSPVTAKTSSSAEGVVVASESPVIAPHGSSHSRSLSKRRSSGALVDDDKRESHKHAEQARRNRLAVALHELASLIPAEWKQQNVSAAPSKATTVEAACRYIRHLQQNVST
Test: relative binding free energy (BET-seq); higher = weaker binding
Conditions: reference: library average

Relative binding free energy, -0.12 kcal/mol:
TGTTGCACGTGCGTCA
ATTAACACGTGGTGAA

Relative binding free energy, -0.2 kcal/mol:
TTTAGCACGTGGGCAG
CTGAGCACGTGGGGCG
TGAGGCACGTGATCTG
TAGCGCACGTGGCGTT

Relative binding free energy, 0.02 kcal/mol:
TGGCGCACGTGTGTGC
GATGGCACGTGTCGCT
AAGGTCACGTGCTGTT
ATTCGCACGTGTGGTA

Relative binding free energy, -0.23 kcal/mol:
CTGCGCACGTGGCGGT
GGAGGCACGTGGGCAG

Relative binding free energy, -0.21 kcal/mol:
AAAGGCACGTGCGTGG

Relative binding free energy, 0.14 kcal/mol:
CGATTCACGTGGCGTT
TTAAACACGTGAGGGA
TAAGTCACGTGGTAAA
GGGGGCACGTGAAAAG

Relative binding free energy, -0.09 kcal/mol:
TGTTGCACGTGCTTAT
AGGGGCACGTGTTCGC
TGTTCCACGTGGGGCG
TTGGGCACGTGTACGT
TGCGGCACGTGGGAGA
GATGACACGTGCGTGT
ACATGCACGTGGAGGG

Relative binding free energy, -0.22 kcal/mol:
TGGGCCACGTGGGAGA

Relative binding free energy, -0.07 kcal/mol:
AATGGCACGTGGAAAG
CGCGGCACGTGTTGTT
AAAAGCACGTGGTTAG
AATTGCACGTGCTGGT
TGTGCCACGTGTTTGA
GGAGGCACGTGGTTTA

Relative binding free energy, -0.06 kcal/mol:
GTGTGCACGTGGTCAA
TATAGCACGTGTACGG

Relative binding free energy, -0.3 kcal/mol:
CTGGGCACGTGGTTAG

Relative binding free energy, -0.03 kcal/mol:
GAGGGCACGTGGTGCA
ATCAGCACGTGTGGTT
CTGTGCACGTGCGGTG
TTGAACACGTGGTGAG
TTAGTCACGTGGACTT

Relative binding free energy, -0.24 kcal/mol:
GCTGCCACGTGGGGTG
TTACGCACGTGGGCTT
TGTCGCACGTGGGGTA
TTCGGCACGTGGGCTG

Relative binding free energy, 0.08 kcal/mol:
ATTTACACGTGGTGGG
AAAGTCACGTGTATAG
ACTGTCACGTGTGGCG
AATTTCACGTGTGCGT
CGGTCCACGTGGCGGT
GTGGGCACGTGACAGC

Relative binding free energy, 0.22 kcal/mol:
ATAATCACGTGAGTTA
CTTCACACGTGTGGGT
TCTTACACGTGTAATT
TTTTTCACGTGCTATG
TGCTTCACGTGGGCAG
TGGTTCACGTGTACAT

Relative binding free energy, 0.3 kcal/mol:
TGGGACACGTGAGGGC

Relative binding free energy, -0.02 kcal/mol:
TATTACACGTGGGCGT
GTATGCACGTGGGAAG
TCTAGCACGTGGAGTT

Relative binding free energy, 0.4 kcal/mol:
TGGCTCACGTGAAATT
GTTCTCACGTGGCTAT

Relative binding free energy, 0.12 kcal/mol:
CTCGTCACGTGATGGG
GTATACACGTGTTGCG

Relative binding free energy, 0.2 kcal/mol:
GTTTACACGTGTGCGT
GTCGACACGTGTTATT
GGTCTCACGTGGTAAG
CAATTCACGTGTGTAG

Relative binding free energy, 0.35 kcal/mol:
GGTGTCACGTGATGGA

Relative binding free energy, -0.25 kcal/mol:
ATAGGCACGTGGTACT
TGGCGCACGTGGCAGG
TGTGGCACGTGCGGCG

Relative binding free energy, 0.16 kcal/mol:
TAACTCACGTGTTGGT
GACGTCACGTGTTGAT

Relative binding free energy, 0.25 kcal/mol:
GGGTTCACGTGGGCGG

Relative binding free energy, 0.36 kcal/mol:
AAATTCACGTGGTTGT
TTTGTCACGTGAGGCG

Relative binding free energy, 0.23 kcal/mol:
GTTGGCACGTGAGGGC
TCAGTCACGTGTGATT
GGTTGCACGTGAATCT
TTTGACACGTGAATGT
TTGGTCACGTGATTGC
GTCATCACGTGTGAAG
TCTTGCACGTGAGTTT
TGGTGCACGTGAAATG
GTTTTCACGTGTCGAT

Relative binding free energy, 0.28 kcal/mol:
ATGTTCACGTGTGCTT

Relative binding free energy, 0.41 kcal/mol:
AAATTCACGTGTCATT

Relative binding free energy, 0 kcal/mol:
TGAGGCACGTGGAGCC
ATTGACACGTGTGTAA
TTTAGCACGTGTAGTG
TATGGCACGTGGAGAA
ACGGTCACGTGGAAGG
GACGGCACGTGACGGG

Relative binding free energy, 0.19 kcal/mol:
ATTGTCACGTGACGGT
GGGGTCACGTGGCGCC
AAATACACGTGATGTT

Relative binding free energy, 0.29 kcal/mol:
GGTATCACGTGTTGAA

Relative binding free energy, -0.1 kcal/mol:
GTTCGCACGTGGGTGT
TGTAACACGTGGACGT
TGTAGCACGTGGATGG

Relative binding free energy, -0.28 kcal/mol:
CGTAGCACGTGGGTGT
AGCGGCACGTGGGGCA

Relative binding free energy, -0.15 kcal/mol:
CGGACCACGTGGGGGA

Relative binding free energy, 0.11 kcal/mol:
TTAATCACGTGCAGTT
GGCGTCACGTGTAGCG

Relative binding free energy, 0.13 kcal/mol:
TTGGTCACGTGTGTCC
GTAGTCACGTGCTTGA

Relative binding free energy, 0.45 kcal/mol:
GAAATCACGTGATTGG

Relative binding free energy, 0.15 kcal/mol:
GTAGACACGTGTGAGT
GTCCGCACGTGAGGTG
AATTTCACGTGTTTGT
TATCTCACGTGATGTG
TTATACACGTGATTAT

Relative binding free energy, -0.13 kcal/mol:
TAACGCACGTGGTGGT

Relative binding free energy, -0.05 kcal/mol:
GGTGGCACGTGCGGGG
AGAAGCACGTGTGATG

Relative binding free energy, 0.1 kcal/mol:
TGGGTCACGTGGGAAA
TGGGGCACGTGATTCG
GTCATCACGTGCGGTT
ATGTGCACGTGATAAG

Relative binding free energy, -0.35 kcal/mol:
TTGGGCACGTGGCCTG

Relative binding free energy, 0.17 kcal/mol:
GGGCTCACGTGGAGGC
GGGTGCACGTGATACT
GTCGTCACGTGTGGTT
GGGTGCACGTGTCAGC

Relative binding free energy, -0.18 kcal/mol:
TCGAGCACGTGGTGTA

Relative binding free energy, 0.32 kcal/mol:
GGCTTCACGTGGCCGG
TCAGTCACGTGAGTTT
TTGTTCACGTGTACGA
AGGTTCACGTGATATT

Relative binding free energy, 0.33 kcal/mol:
TTCAGCACGTGAGTGG
GTGTTCACGTGTGATG

Relative binding free energy, 0.07 kcal/mol:
TGTAACACGTGTTGGT
TCATACACGTGATGGT
ACTTGCACGTGTGGTG
TTTCACACGTGCTTTG
TTGGTCACGTGCTATT

Relative binding free energy, -0.19 kcal/mol:
TACGGCACGTGGGGCA

Relative binding free energy, 0.21 kcal/mol:
GGGTGCACGTGTAAAA
TATTACACGTGATCGG
CGTTTCACGTGGCGGT
GTCGTCACGTGTTTTG

Relative binding free energy, 0.24 kcal/mol:
TGGTTCACGTGGTACG
TGATTCACGTGTTAGG
ATATTCACGTGTCATT
TATAGCACGTGAAGGG

Relative binding free energy, -0.14 kcal/mol:
TATTGCACGTGGGCGG
AATAGCACGTGTGGCT
GTGCCCACGTGTAGGG
GCGAGCACGTGTGAGG

Relative binding free energy, 0.27 kcal/mol:
CGGCTCACGTGGGTTC
TGGCACACGTGAGGGG
GAGTTCACGTGGCAGG
GTGTTCACGTGTATTA
GATTGCACGTGAGGAG

Relative binding free energy, 0.44 kcal/mol:
GGTATCACGTGAATTT

Relative binding free energy, 0.06 kcal/mol:
GGATACACGTGTATTA

Relative binding free energy, -0.01 kcal/mol:
AGAAGCACGTGCTGTT
CGGTGCACGTGGTAAT

Relative binding free energy, 0.57 kcal/mol:
GGGTTCACGTGGAAGC

Relative binding free energy, 0.01 kcal/mol:
CGGTACACGTGGCGGT
AGCGGCACGTGATGGC
TTCGGCACGTGTGTGA
TTAAGCACGTGTAGTA
GAGTGCACGTGGGGAG

Relative binding free energy, 0.37 kcal/mol:
AGAATCACGTGGTTTA
TTGTTCACGTGGAACT
TGGTTCACGTGGTGGG

Relative binding free energy, 0.43 kcal/mol:
ATGTTCACGTGGAGAC

Relative binding free energy, -0.32 kcal/mol:
TTTGGCACGTGCATTA
TGTGGCACGTGCTGTC

Relative binding free energy, 0.05 kcal/mol:
CATGTCACGTGTTGGC
GTATGCACGTGGACAT
TATTGCACGTGTTGGC
GGGAGCACGTGTCGCG
TATGTCACGTGCTGTA

Relative binding free energy, 0.18 kcal/mol:
TGGGTCACGTGTGAAC
AGTTTCACGTGGTAGT
AACATCACGTGGTTTG
TCTAGCACGTGAGGGG

Relative binding free energy, -0.17 kcal/mol:
TGCGGCACGTGGCAGG

Relative binding free energy, 0.39 kcal/mol:
ATCTTCACGTGTCTGT
TCTTACACGTGAATGG

Relative binding free energy, -0.27 kcal/mol:
TAGGCCACGTGGGTTA

Relative binding free energy, 0.34 kcal/mol:
AATGTCACGTGAGGCG

Relative binding free energy, 0.03 kcal/mol:
GAAGGCACGTGTATGA
TTTGTCACGTGCAGGC

Relative binding free energy, -0.04 kcal/mol:
GGGCACACGTGGGGGC
GATGGCACGTGGTTAG
CTGTGCACGTGGCTGT
TTGTGCACGTGTTTAT
ATAGTCACGTGGGTAG

Relative binding free energy, -0.4 kcal/mol:
TGGGCCACGTGGGCTG

Relative binding free energy, 0.26 kcal/mol:
GGCTTCACGTGCAGTT
GTGGACACGTGAGGGC
AATTTCACGTGTTTCT
AGGGACACGTGTTTAC
TGGTTCACGTGGCTCG
TGGTTCACGTGTGGGT

Relative binding free energy, 0.09 kcal/mol:
TAGAACACGTGGTAGT
GAGGGCACGTGTAACG
AATTACACGTGTGATT
TTTTCCACGTGGTAGC

Relative binding free energy, 0.31 kcal/mol:
ATTTGCACGTGAATAG
TATGTCACGTGACTGA
TGGAACACGTGAATGT
TTCTACACGTGGATAG

Relative binding free energy, -0.16 kcal/mol:
CGGTGCACGTGCGGAT
TGATGCACGTGGTCGT
CGTTGCACGTGGTCAG

Relative binding free energy, -0.11 kcal/mol:
TTTGCCACGTGTTTTA
TTGTGCACGTGGGTTT
AGCTGCACGTGGCGTT
ATGTGCACGTGTAAAG
GTGGGCACGTGTTACA
TGAGGCACGTGTACGA
GTGGGCACGTGCTTGT

Relative binding free energy, 0.04 kcal/mol:
TGCTACACGTGGGAAG
GAGTGCACGTGTTCGA
TGATCCACGTGGTATT
GAGGGCACGTGTTGGG
ATGGTCACGTGGCCGT
ACAGTCACGTGGTTAA

Relative binding free energy, -0.08 kcal/mol:
TTGAGCACGTGGGAAG
GGTAACACGTGGGCGT
ACAGGCACGTGGTGCT
TGTAGCACGTGCTGAG
TAGAGCACGTGTGTGC
TAAAGCACGTGGGGAT
AGTTGCACGTGGTTGA
